In article PMC4336329 (PLoS ONE, 2015):
Hit rate of the full screen: of about 310,000 compounds, about 14,000 (4.5%) showed an effect of 50% or more. Effects have a minus sign here. The list shows a part of the results.

Molecular target: human ether-à-go-go-related gene (hERG) potassium channel (human, UniProt Q12809)
Assay: primary screen, population patch clamp on CHO cells stably expressing hERG
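Note: peak tail current of the secondary pulse compared with the same well before compound.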

human ether-à-go-go-related gene (hERG) potassium channel, sequence (Q12809 whole entry, looked up): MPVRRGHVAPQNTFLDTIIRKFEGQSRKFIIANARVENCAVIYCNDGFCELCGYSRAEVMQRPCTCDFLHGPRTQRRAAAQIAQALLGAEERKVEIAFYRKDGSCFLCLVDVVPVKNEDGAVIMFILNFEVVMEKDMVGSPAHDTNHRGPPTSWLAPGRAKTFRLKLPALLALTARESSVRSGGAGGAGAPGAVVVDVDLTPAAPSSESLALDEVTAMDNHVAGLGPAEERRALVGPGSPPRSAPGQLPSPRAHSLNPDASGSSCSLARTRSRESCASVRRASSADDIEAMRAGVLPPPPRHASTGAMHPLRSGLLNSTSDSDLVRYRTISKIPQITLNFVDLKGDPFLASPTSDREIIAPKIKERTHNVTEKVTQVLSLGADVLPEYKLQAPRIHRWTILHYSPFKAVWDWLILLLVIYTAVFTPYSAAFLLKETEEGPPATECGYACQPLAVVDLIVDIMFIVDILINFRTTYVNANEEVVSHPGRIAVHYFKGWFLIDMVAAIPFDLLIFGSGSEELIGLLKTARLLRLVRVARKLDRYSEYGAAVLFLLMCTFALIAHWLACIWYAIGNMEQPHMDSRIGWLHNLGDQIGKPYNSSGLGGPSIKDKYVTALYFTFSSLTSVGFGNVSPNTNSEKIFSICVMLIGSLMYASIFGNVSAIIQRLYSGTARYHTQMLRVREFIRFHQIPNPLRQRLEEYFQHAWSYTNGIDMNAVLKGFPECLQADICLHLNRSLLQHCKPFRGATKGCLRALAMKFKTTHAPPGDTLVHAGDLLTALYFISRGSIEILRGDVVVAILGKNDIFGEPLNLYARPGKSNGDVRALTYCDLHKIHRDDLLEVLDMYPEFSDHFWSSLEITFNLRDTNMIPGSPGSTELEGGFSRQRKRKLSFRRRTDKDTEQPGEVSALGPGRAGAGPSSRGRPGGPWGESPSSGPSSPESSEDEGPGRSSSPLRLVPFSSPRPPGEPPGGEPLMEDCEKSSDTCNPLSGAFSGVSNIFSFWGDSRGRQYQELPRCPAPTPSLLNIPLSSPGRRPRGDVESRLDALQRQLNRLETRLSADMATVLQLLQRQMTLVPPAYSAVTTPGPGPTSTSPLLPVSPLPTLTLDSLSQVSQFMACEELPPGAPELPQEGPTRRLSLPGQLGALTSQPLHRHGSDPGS

SMILES | hERG current change (%, negative = inhibition) at 10uM
Cc1ccc2nc(NC(=O)COC(=O)c3ccco3)sc2c1 | -6.52%
O=C(Nc1nccs1)NC(C(F)(F)F)C(F)(F)F | 14.5%
CC1(C)CC(=O)C=C(c2cccc3c2sc2ccccc23)C1 | 14%
NC(=O)c1c(NC(=O)CSc2nc3c(c(C(F)(F)F)n2)CCc2ccccc2-3)sc2c1CCCC2 | -1.81%
OC(c1ccc(Cl)cc1Cl)C(Cc1cccnc1)n1cncn1 (stereo not shown) | -5.53%
O=C1CC(c2ccco2)Cc2nc(N3CCc4ccccc4C3)ncc21 (stereo not shown) | -20.7%
COC(=O)CN1C(c2ccccc2)=Nc2ccc(Cl)cc2C1c1ccccc1 (stereo not shown) | -66.4%
O=C(NC(=S)N(CCCCO)C1CCCCC1)c1sc2ccccc2c1Cl | -6.23%
CCCCOc1ccc(C(O)C(CN2CCCCC2)c2ccccc2)cc1 (stereo not shown) | -38.9%
CC(C)CN1C(=O)C(=O)N(CC(=O)c2ccc[nH]2)C1=O | 1.48%
CCC(=O)N1CC(=O)Nc2ccc(Br)cc2C1c1ccccc1 (stereo not shown) | -11.6%
CN(C)S(=O)(=O)c1cccc(C(=O)Nc2ccccc2[N+](=O)[O-])c1 | -19.9%
O=C(Nc1nccs1)C(Br)C(Br)c1ccccc1 (stereo not shown) | 17.8%
O=C(NCCS(=O)(=O)N1CCCC1)c1ccccc1 | 14.5%
COC(=O)c1nnn(-c2cccc(Cl)c2)c1C(=O)OC | 8.51%
O=C(O)c1ccc(N/N=C2/CCCc3ccccc32)cc1.O=S(=O)(O)O | 0.56%
COc1ccc(/C=C/C(=O)c2ccc(OC)cc2O)cc1 | 9.92%
COc1ccc(/C=N/NC(=O)Cn2c(Cc3ccc(OC)c(OC)c3)nc3ccccc32)cc1 | -10.2%
CCOC(=O)N1CCC(N2C(=O)c3ccccc3C2Nc2c(C)cccc2C)CC1 (stereo not shown) | -75.1%
CCC(Oc1ccccc1)C(=O)OCC(=O)Nc1sccc1C(N)=O (stereo not shown) | -12.8%
Cc1c(-c2nc(-c3cccnc3)no2)cccc1[N+](=O)[O-] | 41.1%
O=C(Cc1ccccc1)Nc1ccc(C(=O)O)cc1 | -20.6%

SMILES | hERG current change (%, negative = inhibition) at 10uM
C=CCn1c(O)c(C(C)=NCC2CCCO2)c(=O)[nH]c1=O (stereo not shown) | -6.3%
O=C(C1CCC(=O)N1Cc1ccccc1Cl)N1CCC2(CC1)OCCO2 (stereo not shown) | -29.7%
Cc1ccc(COc2cccc3c2CCN(Cc2ccc(F)cc2)C3=O)cc1 | 6.8%
O=C(Nc1ccc2c(c1)OCO2)C1CCN(Cc2cnn(-c3ccccc3)c2-n2cccc2)CC1 | -32.3%
O=C(NC(c1ccccc1)c1ccccc1)C1(c2cccs2)CCOCC1 | 16.7%
COc1ccccc1Nc1ncnc2ccc(C)cc12 | 5.54%
CCn1c(=O)c2c(n3c(=S)[nH]nc13)-c1ccccc1CC21CCCCC1 | -27.4%
CN(CC(=O)OCC(N)=O)S(=O)(=O)c1ccc(Cl)cc1 | 33.6%
COc1cc(C2NCCc3c2[nH]c2ccccc32)ccc1OC(C)C.Cl (stereo not shown) | -23.3%
O=C(/C=C/c1cn(CC(O)CN2CCCCC2)c2ccccc12)c1cccs1 (stereo not shown) | -54.4%
CN(C(=O)c1ccccc1Cl)c1ccccc1C(=O)NCCc1ccccc1 | -8.14%
COc1cccc(OC)c1C(=O)OCCCOC(=O)c1c(OC)cccc1OC | 10.9%
Oc1c(Br)cc(Br)cc1C=NCc1ccc(F)cc1 | 5.63%
Cc1n[nH]c(=O)c2c(NC(=O)COC(=O)Cc3ccc(Cl)cc3Cl)oc(C)c12 | -34.3%
O=C(COc1cccc2ccccc12)N/N=C/C=C/c1ccccc1 | 0.837%
COc1ccc(NC(=O)CSc2ccccc2)c(OC)c1 | 2.29%
COCCNC(=O)C1CCCN(S(=O)(=O)c2cccc3nsnc23)C1 (stereo not shown) | 25.2%
O=c1[nH]c(=O)n(CCC2=CCCCC2)c(O)c1C=NC1CCN(Cc2ccccc2)CC1 | -58.6%
CCNC(=O)NC(=O)C(C)OC(=O)c1cccn1C (stereo not shown) | 16%
CCOC(=O)c1c(NC(=S)NCc2ccccc2)sc2c1CCN(C(=O)OCC)C2 | 32.8%
Cn1nc(-c2ccc(C(=O)O)cc2)c2ccccc2c1=O | 11.6%
Cc1ccc(NCCC(=O)c2ccccc2)cc1Cl | 3.32%

SMILES | hERG current change (%, negative = inhibition) at 10uM
CCN(c1ccccc1)S(=O)(=O)c1ccc(OC)c(NC(=O)Cn2cnc3c2c(=O)n(C)c(=O)n3C)c1 | -66%
COc1ccc(NC(=O)CSc2nnc(C)n2Cc2ccccc2)cc1 | 3.14%
C/C(=N\NC(=O)c1cc(-c2ccc(Br)s2)[nH]n1)c1ccncc1 | 11.1%
Cc1ccc(S(N)(=O)=O)cc1NC(=O)/C=C/c1ccc2c(c1)OCO2 | 17%
CCOC(=O)c1cnc2ccc(Cl)cc2c1Nc1ccc(S(=O)(=O)Nc2ncccn2)cc1 | -23.1%
O=C(O)C1CCC(=O)N1C1c2ccccc2Oc2ccccc21 (stereo not shown) | 0.874%
CN(NC(=O)COc1ccccc1)c1ccccc1 | 4.06%
CCN1CCC(NCC2CCCCC2)CC1 | 14.5%
CC(C)Sc1nc2ccccc2n1CC(N)=O | 8.26%
COc1ccccc1C(=O)NNC(=O)C12CC3CC(CC(C3)C1)C2 | 14.9%
Clc1nc(NCCN2CCOCC2)nc(NCc2ccccc2)n1 | -8.87%
Cc1ccnc(N2C(=O)c3ccccc3C2Nc2ccccc2Cl)c1 (stereo not shown) | 13.2%
Cc1ccccc1NC(=S)c1ccc2ccccc2n1 | 21.2%
COc1ccc(OCCCNCCc2ccccc2)cc1.O=C(O)C(=O)O | -57%
COc1ccc(-c2nn(CCC#N)cc2C(=O)Nc2ccccc2Cl)cc1 | 4.18%
Cn1cnnc1SCc1ccc(C(=O)N=Nc2c(O)n(Cc3ccc(Cl)cc3)c3ccccc23)cc1 | 0.99%
Cc1ccc(S(=O)(=O)NC(C)C(=O)NC(C)c2cccs2)cc1 (stereo not shown) | 13.4%
N/C(=N/OC(=O)c1ccccc1Cl)c1nonc1N | -18.9%
CCC(C)n1c(SCc2ccc([N+](=O)[O-])cc2)nc2ccsc2c1=O (stereo not shown) | -11.6%
Cc1ccccc1-c1nnc(SCC#N)o1 | 6.73%
Cc1ccccc1N1C(=O)C(Cl)=C(N2CCOCC2)C1=O | 20.7%
COc1ccc(OC)c(CCNC(=O)CN2C(=O)COc3ccc(S(=O)(=O)N4CCOCC4)cc32)c1 | -5.46%

SMILES | hERG current change (%, negative = inhibition) at 10uM
COC(=O)C1=C(c2ccc(F)cc2F)C[C@@H]2CC[C@H]1N2C(=O)NC1CCCCC1 | 2.47%
Clc1ccc(OCc2nc(-c3ccc(Br)o3)no2)cc1 | -9.64%
Cc1cc(-c2[nH]nc3c2C(c2ccsc2)C(C#N)=C(N)O3)c(C)s1 (stereo not shown) | -2.19%
CCOc1ccc(Cn2nnc(C(=O)NCc3ccc(OC)cc3)c2N)cc1 | 6.41%
C#CCOCCOCCOCCNc1nc(N2CCN(C(=O)[C@H](Cc3ccc(O)cc3)n3cc([C@@H](N)C(C)CC)nn3)CC2)nc(N2CCN(C(=O)[C@H](Cc3cc4ccccc4[nH]3)n3cc([C@@H](N)CC(C)C)nn3)CC2)n1.Cl (stereo partly shown) | 0.573%
O=C(Cn1cnc2c(NC(=O)OCc3ccccc3)ncnc21)NCCN1CCOCC1 | 1.26%
CC(C)(C)c1cc(C(=O)N/N=C/c2ccncc2)n[nH]1 | -2.71%
O=C1CCC/C1=c1\s/c(=C\c2cccnc2)c(=O)n1-c1ccccc1 | 16.4%
Cc1c(C(=O)NCC2CCCO2)sc2nc(-c3ccc(F)cc3)cn12 (stereo not shown) | -29.7%
COCCN1CCN(Cc2nc(C3(c4ccc(C)cc4)CCCC3)no2)CC1 | -9.3%
Cn1nccc1C(=O)N1CCc2c([nH]c3ccccc23)C1c1ccc(F)cc1 (stereo not shown) | -19.4%
O=C(COC(=O)Cc1ccc(F)cc1)NCCc1ccccc1 | 14.2%
CC1(C(=O)[O-])CCCC2(C)c3cc(O)ccc3CCC12.[Ba+2] (stereo not shown) | 10.7%
COc1cccc(-n2ccnc2SCC(=O)N2CCCc3ccccc32)c1 | -10%
O=C(CN1c2ccccc2S(=O)(=O)c2ccccc21)Nc1ccccc1F | 4.69%
CCN(CC(=O)Nc1ccc(NC(C)=O)cc1)C(=O)CCCc1nc2ccccc2c(=O)[nH]1 | 14.3%
COc1ccc(C2=NOC(C(=O)NCc3ccccn3)C2)cc1OC (stereo not shown) | 18.4%
O=C(Nc1ccc(F)cc1)C1CC(=O)n2c(nc3ccccc32)N1 (stereo not shown) | -8.08%
COc1ccc(C(C)=O)cc1CSc1ccc(S(=O)(=O)N2CCCCC2)cn1 | -3.91%
COCCNC(=O)C(NC(=O)C1CCCCC1)C(C)C (stereo not shown) | 10.3%
Cc1ccc(/C=C/C(=O)NC(=S)N2CCN(C)CC2)cc1 | -20.5%
COc1ccc(-c2cc(C(=O)NCc3ccco3)no2)cc1OC | -2.86%
